This is an account of results in article PMC12136788.

Residue numbers refer to the chain shown, from its start. The list shows a part of the results.

B1: chrX:15345595:15346132:-|three_prime_utr|ENSG00000165197|control|control|control (ssRNA)
RNA: GGGAGUUCUACAGUCCGACGAUCCAGACCAACCUUCCAUUCACACCAGCUAAGGAGUCCCUGGUUCAUUGAUGGAUGUCUUCUAGCUGCAGAUGCCUCUGCGCACCAAGGAAUGGAGAGGAGGGGACCCAUGUAAUCCUUUUGCAACAGAGGAUUGAGCAUCA
B2: chr12:76027553:76027654:-|3pUTR|ENSG00000139289|msi1|total|mutant (ssRNA)
RNA: GGGAGUUCUACAGUCCGACGAUCCUCCUGAGCCGCUGGGACUACAGGUGAAUGCCACCACGCCCGGCUGAUUUUUGUAUUUUCCGCCGAGAUGGGGUUUCACCACCGUGGUCAGGCUGUUCUCGAACUCCUGACCUCAGGUGACAACAGAGGAUUGAGCAUCA
B3: chr4:177430861:177430962:-|3pUTR|ENSG00000038002|msi1|total|mutant (ssRNA)
RNA: GGGAGUUCUACAGUCCGACGAUCUUUACUAAUUCCUUGUGCAGAGGUGGGUAUGGCAAUCCGAAGUCAAGAAAUGGGUUGUUCCGCUUGGUUUGUUUCCCUAACUUCUGAUUAACUCUCUGUAUGACAACUCUACAGAAGUUGCAACAGAGGAUUGAGCAUCA
B4: chr17:78853230:78853302:-|3pUTR|ENSG00000035862|msi1_unk|total|mutant (ssRNA)
RNA: GGGAGUUCUACAGUCCGACGAUCCUCUUCUCCUAUUUUCAUCCUGCAAGCAACUCAAAAUAUUUAAAAUAAAGUUUACAUUGCCGUUAUUUUCAAAUCUUUGCUUGAUAAGUAUUAAGAAAUAUUGGACUUGCUGCCGUAAUUCAACAGAGGAUUGAGCAUCA
B5: chr1:178442813:178442920:+|CDS|ENSG00000075391|unk|FALSE|unique (ssRNA)
RNA: GGGAGUUCUACAGUCCGACGAUCAAAGCAGACAAUAUUUUCUGGGGCGAACAUUUUGAAUUCUUCAGCCUUCCACCUCUUCAUAGUAUCACAGUUCACAUUUACAAGGAUGUGGAAAAAAAGAAAAAAAAGGACAAGAAUAAUCAACAGAGGAUUGAGCAUCA
B6: chr11:69651622:69651678:+|3pUTR|ENSG00000110092|msi1_unk|FALSE|overlapping (ssRNA)
RNA: GGGAGUUCUACAGUCCGACGAUCUUAUACCCCAAUAAUCAACUCGUUUUUAUAUUAAUGUACUUGUUUCUCUGUUGUAAGAAUAGGCAUUAACACAAAGGAGGCGUCUCGGGAGAGGAUUAGGUUCCAUCCUUUACGUGUUUACAACAGAGGAUUGAGCAUCA
B7: chr6:87085629:87085739:-|3pUTR|ENSG00000135346|unk|FALSE|unique (ssRNA)
RNA: GGGAGUUCUACAGUCCGACGAUCGUUUUACCAAGUGCUGUCUUGAUGACUGCUGAUUUUCUGGAAUGGAAAAUUAAGUUGUUUAGUGUUUAUGGCUUUGUGAGAUAAAACUCUCCUUUUCCUUACCAUACCACUUUGACACGCCAACAGAGGAUUGAGCAUCA
B8: chr15:34978960:34979061:-|3pUTR|ENSG00000198146|msi1|total|mutant (ssRNA)
RNA: GGGAGUUCUACAGUCCGACGAUCGCCCUCUGUAUCCAUGUACUCUGCAUCUGUGGAUUAAACCAAUUGCAGAUCAAAAAUAUCCGAAAAAAUAAAAAUAAUACAAAUAAAAAUACAGUAUAACAGUUAUUUAAACCGCAUUUACAACAGAGGAUUGAGCAUCA
B9: chr4:177430861:177430962:-|3pUTR|ENSG00000038002|msi1|FALSE|unique (ssRNA)
RNA: B3 RNA with C60U, C61A, C83U, C84A
B10: chr2:30910466:30910900:-|three_prime_utr|ENSG00000158089|control|control|control (ssRNA)
RNA: GGGAGUUCUACAGUCCGACGAUCUCCUUUUCCUACAAAGGAAGCAGUCUCUGGAGGCCAGAAAGAAAAGCCUUCUUUUUCACUAGGCCAGGACUACAUUGAGAGAUGAAGAAUGGAGGUUGUUUCCAAAAGAAAUAAAGAGAACAACAGAGGAUUGAGCAUCA
B11: chr22:38483724:38483825:-|3pUTR|ENSG00000100201|msi1|FALSE|bound_elsewhere (ssRNA)
RNA: GGGAGUUCUACAGUCCGACGAUCACUUAUAAUUCAGGUUCUGCUGUUGGCUUCAGAACAUGAGCAGAAGAAUCGUUUUAUGCUAGUUAUUGCAUUCAUGGUUGAAACUCAACUUAGGGAAAGGGUUCCAAUGUAUUAAGCAAUCAACAGAGGAUUGAGCAUCA
B12: chr7:77779054:77779164:+|CDS|ENSG00000187257|unk|total|mutant (ssRNA)
RNA: GGGAGUUCUACAGUCCGACGAUCUAAAUUUGAAAACCGCAACAAAGAUUUAAAGGAAGAAUUGUGCCCUGGAAAUCUAAGUCCCGUUGAUACAAGGCAACACAGUUCAGCACAUUCAAAUCAAGAUAAAAAAGACGAUGACAUCAACAGAGGAUUGAGCAUCA
B13: chr9:130136078:130136182:+|3pUTR|ENSG00000148358|msi1_unk|total|mutant (ssRNA)
RNA: GGGAGUUCUACAGUCCGACGAUCAGUCCAAGCAAAUCAUCCCCAUUAAAAAGCUUUUCCUGCCGGCCCGCCGGAUUUCUAAACCGAUGAAUUCAACAGACUUGGUCCCCACCGUCCAAGAGUAUGUAUGUGAAGAAAGUGAGCCAACAGAGGAUUGAGCAUCA
B14: chr4:56994692:56994796:+|CDS|ENSG00000047315|unk|total|mutant (ssRNA)
RNA: GGGAGUUCUACAGUCCGACGAUCAAAAACAGUCAUUAAAGAAGGUGAAGAACAACUUCAGACUCAGCAUCAGAAAACUUUUACCGGAAAAAUUCCAAUUAUGUUGCGGUCAACUUACUGCCUUUUGAAUGGCUUGACAGAUCGCAACAGAGGAUUGAGCAUCA
B15: chr19:1925360:1925461:+|3pUTR|ENSG00000227500|msi1|total|mutant (ssRNA)
RNA: GGGAGUUCUACAGUCCGACGAUCUCUCGAACUCCUGACCUCAAGUGAUCCACCCGCCUUGGCCUCCCAAAGUGCUGGGAUAACCGGUGUCAGCCACCGCGCCCAGCCUGGAGUGGCCUUUUAUGAGAGGGGACCCGUCAAAUCCAACAGAGGAUUGAGCAUCA
B16: chr10:30313878:30313980:-|CDS|ENSG00000107951|unk|total|mutant (ssRNA)
RNA: GGGAGUUCUACAGUCCGACGAUCUGUUUUUAUAUUUAAGCCCUUCAUGUACUUACUCAUUUUUUCUUCUGUGUAAUAAUCUACCGGGAAGGGAGCAAAACAAACCUGAUUCUUCUCCUCUGUACAUUCAGAAUCCAUUUGAAACAACAGAGGAUUGAGCAUCA
B17: ENSG00000198589:be:win_3751|CDS|ENSG00000198589|bound_else_gene|NA|bound_elsewhere_windowed (ssRNA)
RNA: GGGAGUUCUACAGUCCGACGAUCACAGAUACUGAGAGGCUGGAGUUGAAGGCCAGUCCCAACGUGGAAGCACCUCAACCUCAUCGACAUGUGCUUGAGAUAUCAAGGCAACAUGAGCAGCCAGGGCAAGGAAUAGCACCAGAUCAACAGAGGAUUGAGCAUCA
B18: chr2:216672738:216672882:-|3pUTR|ENSG00000115461|msi1|total|mutant (ssRNA)
RNA: GGGAGUUCUACAGUCCGACGAUCUUCUCUCCGGCUUUUGUUUCUAUUUCAAACAUACUUUCUUGGUUUUCUAAUGGAGUAUACCGUUCCGUCAUUUCACAGACUCUGGCCUCCUCUCCUGAAAUCCUUUUGGAUGGGGAAAGGCAACAGAGGAUUGAGCAUCA
B19: ENSG00000070961:be:win_5651|3pUTR|ENSG00000070961|bound_else_gene|NA|bound_elsewhere_windowed (ssRNA)
RNA: GGGAGUUCUACAGUCCGACGAUCGUUUCUAGUCUUGGUUUUGCCAUUAAUGUGCUGCAUGAUCUUGGGAAAAUCAUUUACCCUAAAUAAGGGUGGUGGACUAUCUUGAAGAACCCUUUCAACUCUAAAAAUUGACCCUAUCAACAACAGAGGAUUGAGCAUCA
B20: chr16:46710636:46710789:-|CDS|ENSG00000140795|control|control|control (ssRNA)
RNA: GGGAGUUCUACAGUCCGACGAUCGGCUUGUCCCCAUUUCUAGGGGAAACAGAUGCAGAGACCAUGAAUUUCAUUGUAAACUGUAGCUGGGAUUUUGAUGCUGACACCUUUGAAGGGCUCUCGGAGGAGGCCAAGGACUUUGUUCAACAGAGGAUUGAGCAUCA
B21: chr6:37217323:37218421:-|three_prime_utr|ENSG00000172738|control|control|control (ssRNA)
RNA: GGGAGUUCUACAGUCCGACGAUCAGUUCAAGACCAGCCUGGCCUUGGCAGCCAUGGCAAAACCCCGUCUCUACUAAAAAAAAUAGAAAAUUAGCCAGGCGUGGCGGCACACACCUGUAAUCCCAGCCACUUGAGAGGCUGAGACAACAGAGGAUUGAGCAUCA
B22: ENSG00000070961:be:win_2151|CDS|ENSG00000070961|bound_else_gene|NA|bound_elsewhere_windowed (ssRNA)
RNA: GGGAGUUCUACAGUCCGACGAUCCAUUGCUACCAAAUGUGGUAUUUUACAUCCUGGGGAAGAUUUUCUGUGCCUAGAAGGUAAAGAUUUUAACAGAAGAAUACGAAAUGAAAAAGGAGAGAUUGAGCAAGAGAGGAUAGACAACAACAGAGGAUUGAGCAUCA

The target of the assay is T1, UNK ZnF1-6 (called full-length) (human, UniProt Q9C0B0 30-357).
T1 sequence: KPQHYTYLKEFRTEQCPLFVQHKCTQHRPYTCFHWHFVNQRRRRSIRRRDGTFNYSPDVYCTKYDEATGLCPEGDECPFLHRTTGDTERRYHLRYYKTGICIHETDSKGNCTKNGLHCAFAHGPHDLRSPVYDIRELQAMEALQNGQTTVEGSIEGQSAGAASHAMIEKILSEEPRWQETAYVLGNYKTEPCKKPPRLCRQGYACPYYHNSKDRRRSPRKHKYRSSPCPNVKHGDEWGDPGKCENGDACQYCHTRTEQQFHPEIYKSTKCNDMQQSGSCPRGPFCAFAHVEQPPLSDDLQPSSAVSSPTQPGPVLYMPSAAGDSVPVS
The experiment in a line: nsRBNS (natural sequence RNA bind-n-seq); RBNS binding buffer (assumed for nsRBNS): 25 mM Tris pH 7.5, 150 mM KCl, 3 mM MgCl2, 0.01% Triton X-100, 500 ug/ml BSA, 20 U/ml SUPERase-In, 4 C; UNK is unkempt and MSI1 is Musashi-1; names of the RNAs are library labels; protein concentration not given here; high values mean tight binding.
B1 returned a binding signal of 0.639 enrichment R.

With B2, the binding signal is 0.576 enrichment R.

The molecule B3 yielded a binding signal of 0.488 enrichment R. The result for B4 reads 0.774 enrichment R.

Consider B5, for which the binding signal was 0.818 enrichment R. In the case of B6 it was 0.809 enrichment R; in that of B7, 0.545 enrichment R; in that of B8, 0.982 enrichment R. B9: the binding signal was 0.538 enrichment R. For the molecule B10, the binding signal stood at 0.407 enrichment R. On to B11, for which the binding signal turned out to be 0.588 enrichment R. The result for B12 reads 0.188 enrichment R; that for B13, 0.683 enrichment R; that for B14, 0.257 enrichment R. For the molecule B15, the binding signal was found to be 0.549 enrichment R. In the case of B16, the binding signal is 0.469 enrichment R. B17 gave a binding signal of 0.656 enrichment R. As to B18, the binding signal stood at 0.497 enrichment R.

With B19, the binding signal worked out at 0.455 enrichment R.

Molecule B20 had a binding signal of 0.837 enrichment R.

In turn, B21 gave a binding signal of 1.22 enrichment R.

B22 registered a binding signal of 0.494 enrichment R.
